Out of some 310,000 compounds screened, about 14,000 (4.5%) showed an effect of 50% or more. The effect is printed as a negative number. This is one part of the list.
These compounds were tested against human ether-à-go-go-related gene (hERG) potassium channel (human, UniProt Q12809) (assay: primary screen, population patch clamp on CHO cells stably expressing hERG).
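Also: peak tail current of the secondary pulse compared with the same well before compound.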

human ether-à-go-go-related gene (hERG) potassium channel, sequence (Q12809 whole entry, looked up): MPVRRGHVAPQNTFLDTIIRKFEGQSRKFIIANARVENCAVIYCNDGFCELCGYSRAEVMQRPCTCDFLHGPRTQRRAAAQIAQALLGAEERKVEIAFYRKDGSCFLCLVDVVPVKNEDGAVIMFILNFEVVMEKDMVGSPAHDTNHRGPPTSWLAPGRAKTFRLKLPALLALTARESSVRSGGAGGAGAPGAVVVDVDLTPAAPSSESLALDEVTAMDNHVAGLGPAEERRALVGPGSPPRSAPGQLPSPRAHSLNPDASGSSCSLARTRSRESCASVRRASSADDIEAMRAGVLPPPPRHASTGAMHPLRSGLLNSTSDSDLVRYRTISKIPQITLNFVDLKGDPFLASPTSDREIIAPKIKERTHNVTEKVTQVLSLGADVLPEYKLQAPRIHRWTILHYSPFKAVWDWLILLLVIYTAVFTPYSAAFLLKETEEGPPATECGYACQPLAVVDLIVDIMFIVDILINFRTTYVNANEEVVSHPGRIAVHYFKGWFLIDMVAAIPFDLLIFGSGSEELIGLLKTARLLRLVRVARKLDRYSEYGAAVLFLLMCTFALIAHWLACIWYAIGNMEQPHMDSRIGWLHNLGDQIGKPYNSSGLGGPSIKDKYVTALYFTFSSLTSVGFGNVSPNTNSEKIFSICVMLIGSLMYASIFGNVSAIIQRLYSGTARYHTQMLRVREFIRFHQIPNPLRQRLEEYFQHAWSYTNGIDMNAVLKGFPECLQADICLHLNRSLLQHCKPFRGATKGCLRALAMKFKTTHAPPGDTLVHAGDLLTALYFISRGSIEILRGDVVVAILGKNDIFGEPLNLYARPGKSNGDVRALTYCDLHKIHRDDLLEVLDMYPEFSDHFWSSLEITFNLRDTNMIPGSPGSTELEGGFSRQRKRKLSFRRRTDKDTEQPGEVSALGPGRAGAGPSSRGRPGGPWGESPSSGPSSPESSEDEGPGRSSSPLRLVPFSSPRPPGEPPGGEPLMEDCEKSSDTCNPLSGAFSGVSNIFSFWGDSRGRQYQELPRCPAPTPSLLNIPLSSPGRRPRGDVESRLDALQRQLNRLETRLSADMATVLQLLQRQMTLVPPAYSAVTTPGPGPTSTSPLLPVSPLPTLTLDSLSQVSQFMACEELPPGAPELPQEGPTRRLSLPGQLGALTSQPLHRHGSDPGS

SMILES | hERG current change (%, negative = inhibition) at 10uM [%]
CCOC(=O)c1cc(NC(=O)N2CCCc3ccccc32)c(C)nc1C | -1.48
COc1ccccc1N1CCN(S(=O)(=O)CCNC(=O)C2CC(=O)N(c3ccccc3)C2)CC1 (centres unmarked) | 8.1
CCNc1ccccc1CP(=O)(c1ccccc1)c1ccccc1O (centres unmarked) | 14.4
O=c1oc2ccccc2c(CNc2ccccc2)c1[N+](=O)[O-] | 13.7
CC(C)C[C@H](NC(=O)N1CCn2c1nc1ccccc12)C(=O)N[C@@H](Cc1ccccc1)C(=O)O | -0.882
COc1cc(NC(=O)CSc2ccc(-c3ccco3)nn2)cc(OC)c1 | 11
CCN(CC)CCOc1cc2c(nn1)Oc1ccccc1N2C.Cl.O | -32.1
CCOc1ccccc1C(=O)NN1CCOCC1 | 19.4
Nn1cc(-c2ccccc2)nc1SCC(=O)Nc1ccc2c(c1)OCO2 | -31.8
Cc1ccc(NCc2nnc(SCC(=O)c3ccc4c(c3)OCCO4)o2)c(C)c1 | 13.7
COc1ccc(C(=O)N2CCC(N3CCN(c4ccccc4)CC3)CC2)cc1.O=C(O)C(=O)O | -57.6
CC(=O)OC1C(OC(C)=O)N(C(C)=O)C(=O)N1C(C)=O (centres unmarked) | 6.74
CC(C)CCOP(=O)(c1ccc(N(C)C)cc1)C(O)c1c(Cl)cccc1Cl (centres unmarked) | -23.2
O=C1c2ccccc2NC(c2ccc(F)cc2)N1Cc1ccco1 (centres unmarked) | -43.6
N#Cc1c(NC(=O)COC(=O)c2ccc(S(=O)(=O)N3CCCC3)cc2)sc2c1CCCCC2 | 6.38
Cc1c(-c2ccccc2Cl)nc2ccccc2c1C(=O)O | 16.7
CCOC(=O)C1=C(N)Oc2c(oc(CO)cc2=O)C1c1ccccc1 (centres unmarked) | -9.82
CCOC(=O)C1=C(C)N(Cc2ccc(C(=O)O)cc2)C(=O)NC1c1ccc([N+](=O)[O-])cc1 (centres unmarked) | 17.1
COc1ccccc1CCNC(=O)/C(=C/c1cccnc1)NC(=O)c1ccccc1 | -33.9
Cc1ccc(NC(=O)[C@H](CC(C)C)NC(=O)[C@@H]2Cc3ccccc3CN2)cc1 | -2.84
O=C(O)c1ccc(NC(=O)C2C3CCC(O3)C2C(=O)O)cc1 (centres unmarked) | 11.6
CN(CC(=O)Nc1ccc(F)cc1)C(=O)COC(=O)CNC(=O)c1ccc(Cl)cc1Cl | -2.14

SMILES | hERG current change (%, negative = inhibition) at 10uM [%]
CCc1nnc(NC(=O)CSc2ccc(-c3ccc(F)cc3)nn2)s1 | 22
CCOC(=O)c1c(C)[nH]c(C(=O)OCc2csc(CC(=O)Nc3ccccc3C)n2)c1C | 24.4
Cn1c(C(=O)NCCN2CCc3ccccc3C2)cc2c(=O)n(C)c3ccccc3c21 | -11.8
O=C(CSc1nncs1)Nc1cc(-c2ccccc2)nn1-c1ccccc1 | -39.1
O=C1CC(N2CCSCC2)C(=O)N1c1ccc(F)cc1 (centres unmarked) | -6.61
COc1ccc(NC(=O)CSc2nc3ccsc3c(=O)n2CCC(=O)O)c(OC)c1 | 12.5
CCN1CCN(C(=S)NC(=O)/C=C/c2cccs2)CC1 | 22.7
C#CCn1cc(Cl)cc(C(=O)Nc2ccccc2)c1=O | 19.3
CCN(CC)c1ccc(NC(=O)CSc2ccsc2[N+](=O)[O-])c(C)c1 | 5.74
O=C(CSC(=S)N1CCCC1)N1CCN(S(=O)(=O)c2ccccc2F)CC1 | -25.3
O=C(NCc1ccccc1)c1ccc(N2CCC3(CC2)CC(c2ccccc2)=NO3)c([N+](=O)[O-])c1 | 5.28
Cc1ccc(Cn2nc(-c3ccccc3)nc2-c2ccccc2)cc1 | -2.45
COc1ccc(N2CCN(C(=O)CNS(=O)(=O)c3ccc(Br)s3)CC2)cc1 | -27.6
O=C(NNc1nc2c(F)cc(F)cc2s1)C1COc2ccccc2O1 (centres unmarked) | -18.5
CC(C)(C)NC(=O)c1cccc2c1OC(C)(C)C2 | -7.3
O=c1[nH]cnc(O)c1C(c1ccc2c(c1)OCO2)c1c(O)nc[nH]c1=O | 4.14
O=C1NC[C@H](c2ccccc2)N(CCC23CC4CC(CC(C4)C2)C3)C1=O | 23.9
Cc1oc(-c2ccccc2)nc1CC(=O)O | 8.97
COc1cc(-c2nnc(NC(=O)C3=COCCO3)o2)cc(OC)c1OC | -8.14
Fc1ccccc1C1CCN(Cc2nc(CC3CC3)no2)C1 (centres unmarked) | 2.1
CCC(C(=O)OCn1nnc2ccccc2c1=O)c1ccccc1 (centres unmarked) | -11.5
CCN(CC)S(=O)(=O)c1cccc(-c2nnc(SCC(=O)NC3CCCCCC3)n2N)c1 | -40.6

SMILES | hERG current change (%, negative = inhibition) at 10uM [%]
Cc1ccc(C2=NNC(C(O)C(O)C(O)C(O)CO)S2)cc1 (centres unmarked) | 2.26
Cc1cccn2c(=O)c(C(=O)NCCCN3CC(C)CC(C)C3)c(O)nc12 (centres unmarked) | -20.3
Cc1ccccc1-n1c(O)c(/C=N/Nc2nc3c(c(=O)n(C)c(=O)n3C)n2C)c(=O)[nH]c1=S | 3.65
Cc1ccc(C)c(NC(=O)CCc2c(C)nn(-c3ccc(N4CCCCC4)nn3)c2C)c1 | 1.13
CCCCn1c(SCC(=O)c2ccccc2)nc2c1c(=O)[nH]c(=O)n2C | -13.8
Cc1ccccc1C(=O)NNC(=O)CN1C(=O)c2ccccc2C1=O | 11.6
Cc1ccc2c(c1)N(CC(=O)NC1CCC(C)CC1)C(=O)c1cccnc1O2 (centres unmarked) | -8.15
COc1cc(/C=N/Nc2cccc3cccnc23)cc(OC)c1O | 12.8
COc1ccc(S(=O)(=O)N2CCCCC2)cc1NC(=O)CNc1ccc(F)cc1C | 13.9
COc1ccc(-c2oc3ncnc(NCCCN4CCOCC4)c3c2-c2ccc(OC)cc2)cc1 | 2.49
COc1ccccc1CN1CCC(n2nccc2NC(=O)c2ccccc2Cl)CC1 | -76.2
C/C(=N\NC(=O)c1ccc(Br)cc1)c1ccccc1 | 1.2
CC(C)[C@H](NC(=O)N1CCn2c1nc1ccccc12)C(=O)N[C@H](Cc1ccccc1)C(=O)O | 6.38
Cc1ccc(C(=O)COC(=O)c2nc3nccc(C)n3n2)c(C)c1 | -7.14
c1ccc(COC2CCCN(Cc3nc(-c4cccs4)no3)C2)nc1 (centres unmarked) | -3.95
Cc1ccc(NC(=O)C2=CCN(S(=O)(=O)c3ccc(F)cc3)CC2)c(C)c1 | 7.49
Cc1ccccc1NC(=O)Cc1cccs1 | 0.074
CCOC(=O)c1ccc(NC(=O)CCc2nc(-c3ccccc3)no2)cc1 | 4.66
O=C1Nc2ccccc2N2CCCC12 (centres unmarked) | 8.4
CC(C)c1ccc(NC(=S)NCCc2c[nH]c3ccccc23)cc1 | 10.8
Cn1c(=O)[nH]c(=O)c2c1nc(Br)n2CCSc1nc2ccccc2o1 | -1.02
NNC(=O)c1cc2c(ccc3ccccc32)o1 | -8.53

SMILES | hERG current change (%, negative = inhibition) at 10uM [%]
Cc1nn(C)c2ncc(C(N)=O)c(Oc3ccc(Cl)cc3)c12 | 7.24
CCOC(=O)c1cccc(NC(=O)C2CCCN2S(=O)(=O)c2cccc3cccnc23)c1 (centres unmarked) | -6.12
O=C(CSc1nnc(-c2ccccc2F)n1C1CC1)Nc1cccnc1Cl | -0.702
CCc1nnc(SCC(=O)N2CCCC(N3CCN(c4ccccc4C)CC3)C2)o1 (centres unmarked) | -24.2
O=C(N/N=C\c1ccoc1)c1ccco1 | 7.28
Cc1cc(C(=O)Nc2c(F)cc(F)cc2Br)c(C)o1 | -1.93
NNC(=O)CN1C(CN2CCOCC2)=Nc2ccc(Br)cc2C1c1ccccc1 (centres unmarked) | -48.9
Cc1ccccc1NS(=O)(=O)c1ccc(OCC(=O)N2CCN(C)CC2)cc1 | 1.27
NC(=O)c1ccc(Oc2ccc3c(c2)CCC3)c([N+](=O)[O-])c1 | -11
CC(C)N1CCc2c(sc(NC(=O)c3nc4ccccc4s3)c2C(N)=O)C1.Cl | -45.1
O=C(N/N=C/c1cn(Cc2ccccc2)c2ccccc12)c1cc(O)cc(O)c1 | 19.5
CCOC(=O)c1cnn(-c2ccc(C)cc2)c1N | -1.1
O=C(CCc1c[nH]c2ccccc12)N1CCCCCCC1 | 5.91
COc1ccc(-n2nc3c(c2NC(=O)CBr)CSC3)cc1 | 7.81
O=C(NCc1ccccc1Cl)c1cnc2ccccc2n1 | -2.3
CCN(CC)S(=O)(=O)c1ccc(C)c(NC(=O)CNc2cccc(S(=O)(=O)N3CCCC3)c2)c1 | 1.08
CCCCCOc1ccc(/C=C/C(=O)NCCc2nc3ccccc3[nH]2)cc1OC | 30.1
Cc1ccc(S(=O)(=O)Nc2c(C)n(C)n(-c3ccccc3)c2=O)cc1C(=O)OCC(=O)N1CCCC(C)C1 (centres unmarked) | -16.1
O=C(OCn1nnc2ccccc2c1=O)C1COc2ccccc2O1 (centres unmarked) | 12.7
CCS(=O)(=O)c1nc(S(=O)(=O)c2ccc(Cl)cc2)c(N2CCC3(CC2)OCCO3)s1 | -51.5

Source: article PMC4336329 (PLoS ONE, 2015)
